Consider six molecules from patent publication US20240190987A1, “Engineered EpCam Binding Antibodies” (TigaTX, priority 2021, published 2024).

The nature of data set [1]: Differential scanning fluorimetry (DSF) melting temperature. Format: physicochemical. The method, then:
DSF was performed on a LC480 Lightcycler Instrument II (Roche). Purified recombinant protein was diluted to 5 μM in DSF buffer (PBS, pH 7.4, Sypro Orange 5×) with small molecule (10 μM VTX) or vehicle (0.05% DMSO) and then heated with a temperature gradient (0.01° C./s) from 25 to 95° C. Data were continuously acquired at ˜465 nm (excitation) and ˜580 nm (emission). Data was analyzed to generate first derivative curves in which the curve maximum was reported as the melting temperature of the protein.
Background: DSF heats the sample and reads unfolding from a dye or from intrinsic fluorescence.

Data set [2] is described as follows: BLI binding of LS2A variants to biotin-IDV. The conditions noted are these: LS2A R4 variants (Table 21). The method, then: In R1 of engineering, point mutations were made to remove an oxidation site, deamidation sites, or a hydrophobic residue. In addition, several murine back mutations were tested to improve humanization. Binding kinetics were measured to biotin-IDV and LS2B Ab0637.
Bio-layer interferometry (BLI) data were measured using an Octet RED384 (ForteBio) instrument. Antigens of interest were immobilized on an AHC biosensor and loaded until a 0.4-0.6-nm signal was achieved. Purified antibodies were used as the analyte premixed with 10 μM Indinavir or 0.05% DMSO vehicle. PBSTB (PBS, pH 7.4, 0.05% Tween-20, 0.2% BSA) was used for all buffers for BLI. Data were analyzed using ForteBio Octet analysis software and kinetic parameters were determined using a 1:1 monovalent binding model.
(In general: BLI is a label-free optical method that tracks binding on a fibre tip over time.)

B1: Ab0823: anti-EpCAM binding domain, FIGS. 8A-8C (antibody)
heavy: EVKLEESGGGLVQPGGSMKLSCVASGFTFSNYWMNWVRQSPEKGLEWVAQIRVKSENFATHYAESVKGRFTISRDDSKSSVYLQMNNLRAEDTGIYYCTLYDGFSWGQGTTLTVSSASTKGPSVFPLAPSSKSTSGGTAALGCLVKDYFPEPVTVSWNSGALTSGVHTFPAVLQSSGLYSLSSVVTVPSSSLGTQTYICNVNHKPSNTKVDKKV[human IgG1 Fc with changes left out]
modifications: light chain not cited; REGION 1..446: note = Ab0823 HC
Take B1: the “TM (° C.)” value in data set [1] (anti-EpCAM M37 clones (Table 25)) is 68.5 °C.

B2: Ab1098: LS2A indinavir binding domain, FIGS. 5A-5E (antibody)
heavy: QVQLVQSGAEVKKPGASVKVSCKASGYTFTSYLMHWVRQHPGQGLEWMGMIHPNSGGTNYAQKFQGRVTMTRDTSTSTVYMELSSLRSEDTAVYYCAMGDYVSRDYWGQGTLVTVSSGGGGSGGGGSGGGGSEIVLTQSPGTLSLSPGERATLSCRASSSVSSSYLHWYQQKPGQAPRLLIYSTSSRATGIPDRFSGSGSGTDFTLTISRLEPEDFAVYYCQQYSGYQFTFGQGTKLEIKGGGGS[human IgG1 Fc with changes left out]
light: DIQMTQSPSSLSASVGDRVTITCSASSSVSSGNFHWYQQKPGKAPKLLIYRTSNLASGVPSRFSGSGSGTDYTLTISSLQPEDFATYYCQQWSGYPYTFGQGTKVEIKRTVAAPSVFIFPPSDEQLKSGTASVVCLLNNFYPREAKVQWKVDNALQSGNSQESVTEQDSKDSTYSLSSTLTLSKADYEKHKVYACEVTHQGLSSPVTKSFNRGEC
modifications: knob heavy chain missing; REGION 1..471: note = Ab1098 HC Hole scFv-Fc; REGION 1..215: note = Ab1098 LC Knob
For orientation: Kd means a measure of binding affinity in units of concentration. With B2, binding in data set [2] was put at a Kd of 16 nM. In other words, the double-digit nanomolar range.

B3: Ab1107: LS2A indinavir binding domain, FIGS. 5A-5E (antibody)
heavy: EVQLVESGGGLVQPGGSLRLSCAASGFTFSNYWMNWVRQAPGKGLEWVAQIRVKSENFATHYADSVKGRFTISRDDSKSTVYLQMNSLRAEDTAVYYCTLYDGFSWGQGTLVTVSSASTKGPSVFPLAPSSKSTSGGTAALGCLVKDYFPEPVTVSWNSGALTSGVHTFPAVLQSSGLYSLSSVVTVPSSSLGTQTYICNVNHKPSNTKVDKKV[human IgG1 Fc with changes left out]
scFv: QVQLVQSGAEVKKPGASVKVSCKASGYTFTSYWMHWVRQHPGQGLEWMGMAHPNSGGTNYAQKFQGRVTMTRDTSTSTVYMELSSLRSEDTAVYYCAMGDYVSRDYWGQGTLVTVSSGGGGSGGGGSGGGGSEIVLTQSPGTLSLSPGERATLSCRASSSVSSSYLHWYQQKPGQAPRLLIYSTSSRATGIPDRFSGSGSGTDFTLTISRLEPEDFAVYYCQQYSGYQFTFGQGTKLEIKGGGGS[human IgG1 Fc with changes left out]
modifications: light chain entry not cited; REGION 1..445: note = Ab1107 HC Knob; REGION 1..471: note = Ab1107 HC Hole scFv-Fc
On to B3, for which the “biotin-IDV KD (nM)” value in data set [2] is recorded as “weak”.

B4: Ab1103: LS2A indinavir binding domain, FIGS. 5A-5E (antibody)
heavy: EVQLVESGGGLVQPGGSLRLSCAASGFTFSNYWMNWVRQAPGKGLEWVAQIRVKSENFATHYADSVKGRFTISRDDSKSTVYLQMNSLRAEDTAVYYCTLYDGFSWGQGTLVTVSSASTKGPSVFPLAPSSKSTSGGTAALGCLVKDYFPEPVTVSWNSGALTSGVHTFPAVLQSSGLYSLSSVVTVPSSSLGTQTYICNVNHKPSNTKVDKKV[human IgG1 Fc with changes left out]
scFv: QVQLVQSGAEVKKPGASVKVSCKASGYTFTSYWMHWVRQHPGQGLEWMGMIHPASGGTNYAQKFQGRVTMTRDTSTSTVYMELSSLRSEDTAVYYCAMGDYVSRDYWGQGTLVTVSSGGGGSGGGGSGGGGSEIVLTQSPGTLSLSPGERATLSCRASSSVSSSYLHWYQQKPGQAPRLLIYSTSSRATGIPDRFSGSGSGTDFTLTISRLEPEDFAVYYCQQYSGYQFTFGQGTKLEIKGGGGS[human IgG1 Fc with changes left out]
modifications: light chain entry not cited; REGION 1..445: note = Ab1103 HC Knob; REGION 1..471: note = Ab1103 HC Hole scFv-Fc
In data set [2], B4 gave a dissociation constant (Kd) of 11 nM.

B5: Ab1109: LS2A indinavir binding domain, FIGS. 5A-5E (antibody)
heavy: EVQLVESGGGLVQPGGSLRLSCAASGFTFSNYWMNWVRQAPGKGLEWVAQIRVKSENFATHYADSVKGRFTISRDDSKSTVYLQMNSLRAEDTAVYYCTLYDGFSWGQGTLVTVSSASTKGPSVFPLAPSSKSTSGGTAALGCLVKDYFPEPVTVSWNSGALTSGVHTFPAVLQSSGLYSLSSVVTVPSSSLGTQTYICNVNHKPSNTKVDKKV[human IgG1 Fc with changes left out]
scFv: QVQLVQSGAEVKKPGASVKVSCKASGYTFTSYWMHWVRQHPGQGLEWMGMIHPNSGSTNYAQKFQGRVTMTRDTSTSTVYMELSSLRSEDTAVYYCAMGDYVSRDYWGQGTLVTVSSGGGGSGGGGSGGGGSEIVLTQSPGTLSLSPGERATLSCRASSSVSSSYLHWYQQKPGQAPRLLIYSTSSRATGIPDRFSGSGSGTDFTLTISRLEPEDFAVYYCQQYSGYQFTFGQGTKLEIKGGGGS[human IgG1 Fc with changes left out]
modifications: light chain entry not cited; REGION 1..445: note = Ab1109 HC Knob; REGION 1..471: note = Ab1109 HC Hole scFv-Fc
With B5, in data set [2], the affinity, expressed as Kd, was 6.3 nM.

B6: Ab1095: LS2A indinavir binding domain, FIGS. 5A-5E (protein)
scFv-Fc: QVQLVQSGAEVKKPGASVKVSCKASGYTFTSYAMHWVRQHPGQGLEWMGMIHPNSGGTNYAQKFQGRVTMTRDTSTSTVYMELSSLRSEDTAVYYCAMGDYVSRDYWGQGTLVTVSSGGGGSGGGGSGGGGSEIVLTQSPGTLSLSPGERATLSCRASSSVSSSYLHWYQQKPGQAPRLLIYSTSSRATGIPDRFSGSGSGTDFTLTISRLEPEDFAVYYCQQYSGYQFTFGQGTKLEIKGGGGS[human IgG1 Fc with changes left out]
light: B2 light
heavy: EVQLVESGGGLVQPGGSLRLSCAASGFTFSNYWMNWVRQAPGKGLEWVAQIRVKSENFATHYADSVKGRFTISRDDSKSTVYLQMNSLRAEDTAVYYCTLYDGFSWGQGTLVTVSSASTKGPSVFPLAPSSKSTSGGTAALGCLVKDYFPEPVTVSWNSGALTSGVHTFPAVLQSSGLYSLSSVVTVPSSSLGTQTYICNVNHKPSNTKVDKKV[human IgG1 Fc with changes left out]
Regarding B6, in data set [1] (LS2A R4 variants (Table 21)), the “TM (° C.)” value turned out to be 55.9 °C.
